Assay results taken from paper PMC6711944.
These are yes or no findings as the source states them, for the method shown. In cells and extracts the contact can be indirect. Some binding calls cover weakened binding; strength is not graded here. Tags and fused reporters may be left off the sequences shown.

The chains behind the UniProt entries cited, without tags or fusion partners. Residues count along the entry.
UniProt P05161, residues 1-157: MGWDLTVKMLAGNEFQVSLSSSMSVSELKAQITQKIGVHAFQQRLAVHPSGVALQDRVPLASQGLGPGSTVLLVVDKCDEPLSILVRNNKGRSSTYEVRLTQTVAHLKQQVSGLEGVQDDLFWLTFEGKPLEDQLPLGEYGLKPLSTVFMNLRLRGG
UniProt O02741: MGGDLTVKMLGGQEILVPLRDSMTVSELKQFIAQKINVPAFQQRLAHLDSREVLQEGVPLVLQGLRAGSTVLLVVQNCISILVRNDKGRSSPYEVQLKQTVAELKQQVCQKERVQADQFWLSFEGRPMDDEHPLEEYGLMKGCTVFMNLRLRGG
UniProt Q64339, residues 1-155: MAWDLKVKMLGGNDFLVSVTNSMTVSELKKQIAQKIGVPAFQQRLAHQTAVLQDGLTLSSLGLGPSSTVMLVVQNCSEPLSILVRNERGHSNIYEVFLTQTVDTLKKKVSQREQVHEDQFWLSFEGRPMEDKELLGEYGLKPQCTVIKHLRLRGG

Legend:
Assay in all cases: co-IP
[1] = target: 3xFlag-ISG15, human (wild type) (human) (UniProt P05161)
[2] = target: 3xFlag-ISG15, bovine (wild type) (bovine) (UniProt O02741)
[3] = target: 3xFlag-ISG15, murine (wild type) (murine) (UniProt Q64339)

B1: NS1B-HA (full-length influenza B virus NS1 protein) (protein, UniProt P03502 1-281)
chain: MADNMTTTQIEVGPGATNATINFEAGILECYERFSWQRALDYPGQDRLHRLKRKLESRIKTHNKSEPENKRMSLEERKAIGVKMMKVLLFMDPSAGIEGFEPYCVKNPSTSKCPNYDWTDYPPTPGKYLDDIEEEPENVDHPIEVVLRDMNNKDARQKIKDEVNTQKEGKFRLTIKRDIRNVLSLRVLVNGTFLKHPNGDKSLSTLHRLNAYDQNGGLVAKLVATDDRTVEDEKDGHRILNSLFERFDEGHSKPIRAAETAVGVLSQFGQEHRLSPEEGDN
Q: Which binding [1] does the source give for B1 here?
A: binds

Q: And the binding [2]?
A: no binding

Q: What about the binding [3] of the same binder?
A: no binding
